Five molecules from paper PMC10397247 can be followed below.

The target in experiment [1] is GCN2_TK. The experiment is described as follows: two-hybrid library CCmax.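 Further: natural log of median RNA to DNA barcode read ratio; higher means stronger binding.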
Experiment [2] concerns the target GCN2_T. The experiment is described as follows: two-hybrid library CCmax.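 Further: natural log of median RNA to DNA barcode read ratio; higher means stronger binding.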
For experiment [3], the target named is T1, P1-AA.
T1 chain: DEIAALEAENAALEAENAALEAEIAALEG
The experiment is described as follows: two-hybrid library CCmax.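 Further: natural log of median RNA to DNA barcode read ratio; higher means stronger binding.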

The target in experiment [4] is T2, P10-AA.
T2 chain: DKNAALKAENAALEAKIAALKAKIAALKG
The experiment is described as follows: two-hybrid library CCmax.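 Further: natural log of median RNA to DNA barcode read ratio; higher means stronger binding.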

Experiment [5] concerns the target T3, P7-AA.
T3 chain: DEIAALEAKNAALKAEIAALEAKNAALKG
The experiment is described as follows: two-hybrid library CCmax.

The target in experiment [6] is T4, P4-AA.
T4 chain: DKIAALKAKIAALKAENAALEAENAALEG
In words: two-hybrid library CCmax.

For experiment [7], the target named is T5, zCON9_D.
T5 chain: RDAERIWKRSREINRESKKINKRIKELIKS
In words: two-hybrid library CCmax.

Experiment [8] concerns the target T6, P11-AA.
T6 chain: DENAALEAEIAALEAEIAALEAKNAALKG
In words: two-hybrid library CCmax.

The target in experiment [9] is T7, P8-AA.
T7 chain: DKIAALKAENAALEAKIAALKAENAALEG
The experiment is described as follows: two-hybrid library CCmax.

Experiment [10] addresses T8, P12-AA.
T8 chain: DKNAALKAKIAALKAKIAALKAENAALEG
The experiment is described as follows: two-hybrid library CCmax.

Experiment [11] deals with T9, P9-AA.
T9 chain: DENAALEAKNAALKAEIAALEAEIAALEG
The experiment is described as follows: two-hybrid library CCmax.

The target of experiment [12] is T10, O11-AA.
T10 chain: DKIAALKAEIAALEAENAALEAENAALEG
The experiment is described as follows: two-hybrid library CCmax.

Experiment [13] has as its target T11, P3-AA.
T11 chain: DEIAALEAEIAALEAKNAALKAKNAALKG
In words: two-hybrid library CCmax.

In experiment [14] the target is T12, P2-AA.
T12 chain: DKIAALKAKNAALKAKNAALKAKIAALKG
In words: two-hybrid library CCmax.

Experiment [15] concerns the target T13, O13-AA.
T13 chain: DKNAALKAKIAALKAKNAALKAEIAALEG
In words: two-hybrid library CCmax. The conditions noted are these: mean of both orientations.

Experiment [16] deals with T14, zCON9_B.
T14 chain: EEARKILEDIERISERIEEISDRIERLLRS
The experiment is described as follows: two-hybrid library CCmax. The conditions noted are these: mean of both orientations.

The target of experiment [17] is T15, AP4-AA.
T15 chain: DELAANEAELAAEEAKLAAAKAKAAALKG
In words: two-hybrid library CCmax.

For experiment [18], the target named is T16, AP6-AA.
T16 chain: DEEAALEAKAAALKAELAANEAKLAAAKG
In words: two-hybrid library CCmax.

Experiment [19] concerns the target T17, AP8-AA.
T17 chain: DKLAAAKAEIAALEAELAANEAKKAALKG
The experiment is described as follows: two-hybrid library CCmax.

Experiment [20] addresses T18, zCON9_A.
T18 chain: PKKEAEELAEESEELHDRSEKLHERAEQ
The experiment is described as follows: two-hybrid library CCmax.

The target of experiment [21] is T19, AP2-AA.
T19 chain: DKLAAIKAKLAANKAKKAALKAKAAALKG
The experiment is described as follows: two-hybrid library CCmax.

For experiment [22], the target named is T20, AP5-AA.
T20 chain: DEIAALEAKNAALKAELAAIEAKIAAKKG
The experiment is described as follows: two-hybrid library CCmax. The note with it: mean of both orientations.

Experiment [23] addresses T21, O14-AA.
T21 chain: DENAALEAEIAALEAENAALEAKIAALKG
In words: two-hybrid library CCmax.

The target of experiment [24] is T22, AP3-AA.
T22 chain: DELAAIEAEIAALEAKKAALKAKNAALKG
The experiment is described as follows: two-hybrid library CCmax.

The target in experiment [25] is T23, AP1-AA.
T23 chain: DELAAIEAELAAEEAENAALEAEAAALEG
The experiment is described as follows: two-hybrid library CCmax.

Experiment [26] addresses T24, AP7-AA.
T24 chain: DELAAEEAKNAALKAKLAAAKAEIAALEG
The experiment is described as follows: two-hybrid library CCmax.

In experiment [27] the target is GCN4-S. The experiment is described as follows: two-hybrid library CCNG1.
Experiment [28] addresses GCN4-SN. In words: two-hybrid library CCmax.
The target of experiment [29] is GCN4-SN. In words: two-hybrid library CCNG1.

Like-named read-outs stand apart in the source and are kept apart here.

In [1], KQLEDKVEELLRKNYHLENEVERLKKLVG [GCN2_TK] yielded an interaction score of -0.172.

As to QLEDKVEELLRKNYHLENEVERLKKLVG [GCN2_T], the interaction score in [2] was -1.72; in experiment [3] it was -2.26; in experiment [4] (mean of both orientations), -2.08; in experiment [5] (mean of both orientations) it was -0.868; in experiment [6] (mean of both orientations), -1.9; in [7], -1.86. The interaction score is -0.724 in experiment [8]; -1.3 in [9]; -1.65 in [10]; -1.74 in [11]; -2 in experiment [12]; -1.11 in experiment [13]. The interaction score in [14] was -1.79; in experiment [15], -0.908; in experiment [16] it was 0.172.

Consider QLEDKIEELLSKNYHLENEIARLKKLIG [4H_GCN4], for which the interaction score in experiment [17] is -2.11; in experiment [2], -2.01; in experiment [3] it was -1.57; in experiment [4] it was -1.25; in experiment [18], -1.68; in experiment [5] it was -0.689. Moreover, the interaction score in experiment [19] was -2.7; in [20] it was -1.53; in experiment [6], -1.93; in [21], -2.37; in experiment [22], 0.704; in experiment [7], -1.77. The interaction score in [8] (mean of both orientations) is -0.988; in experiment [9] (mean of both orientations) it was -1.41; in [10] it was -2.08; in experiment [11] it was -1.6; in experiment [23] it was -0.609; in experiment [12], -2.12. Besides, the interaction score in experiment [13] was -1.56; in [14], -1.86; in [24], -2.07; in [25] it was -2.19; in [26], -2.02; in experiment [15], -1.4. This molecule also returned an interaction score in experiment [16] of 0.379.

The molecule QLEDKVEELLSKNYHLENEVSRLKKLVG [GCN4-S] had an interaction score in [27] of -2.49.

As to QLEDKVEELLSKNYHLENEVERLKKLVG [GCN4-SN], the interaction score in experiment [28] is -1.38; in [29], -2.31.
